Reference: paper PMC3411106, “Structural analysis of the human SYCE2–TEX12 complex provides molecular insights into synaptonemal complex assembly” (Open Biology, 2012)
Results are given in words; binding and its absence hold for the method and conditions named. For part of these data: Binding seen in cells or lysates may run through a third protein. Some results given as binding are weak or reduced against the parent protein; the word gives no strength. Tags and fused reporters may be left off the sequences shown. Each block holds one binder with its values, some of them ahead of it.

Columns and labels:
[1] = molecular target: T1, MBP–SYCE2_(57–165) (human) (UniProt Q6PIF2); assay: pull-down; amylose pull-down after co-expression in bacteria of MBP-fusion SYCE2 constructs (bait) with His-tagged TEX12 or SYCE2 constructs; lysis in 20 mM Tris pH 8.0, 500 mM KCl, 2 mM DTT; 1 h at 4°C; maltose elution; Coomassie-stained SDS–PAGE
T1 sequence: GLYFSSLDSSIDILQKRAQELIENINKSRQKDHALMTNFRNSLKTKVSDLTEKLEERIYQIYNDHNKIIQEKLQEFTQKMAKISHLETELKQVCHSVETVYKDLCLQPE

[2] = molecular target: T2, MBP–SYCE2_(57–88) (human, UniProt Q6PIF2 57-88); assay: as above
T2 construct: human SYCE2, residues 57–88 (α1 region); Monomer by SEC–MALS; also called α1 region of SYCE2; source: E. coli Rosetta 2 (DE3); co-expressed (pRSFDuet-1), in clarified lysate for the pull-down; individually expressed, purified on amylose resin for SEC–MALS; not shown: MBP, N-terminal, kept
T2 chain (looked up): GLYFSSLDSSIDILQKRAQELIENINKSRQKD

[3] = molecular target: T3, MBP–SYCE2 (1–218) (human, UniProt Q6PIF2 1-218); assay: as above
T3 construct: Tetramer by SEC–MALS; also called full-length SYCE2; source: E. coli Rosetta 2 (DE3); co-expressed (pRSFDuet-1), in clarified lysate for the pull-down; individually expressed, purified on amylose resin for SEC–MALS; not shown: MBP, N-terminal, kept
T3 sequence (looked up): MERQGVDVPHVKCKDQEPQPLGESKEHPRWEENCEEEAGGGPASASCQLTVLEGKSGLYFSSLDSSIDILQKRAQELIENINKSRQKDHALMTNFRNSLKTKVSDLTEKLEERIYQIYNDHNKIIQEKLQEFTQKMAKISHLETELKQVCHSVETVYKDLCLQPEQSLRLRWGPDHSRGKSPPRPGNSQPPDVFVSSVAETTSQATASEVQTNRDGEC

[4] = molecular target: T1, MBP–SYCE2_(57–165) (human); assay: co-purification (sequential Ni–NTA and amylose affinity, TEV cleavage, anion exchange); MBP–SYCE2_(57–165) co-expressed in bacteria with His–TEX12 or His–TEX12_(49–123); from clarified lysate; tags cleaved on the amylose column, then Resource Q
[5] = molecular target: T4, human SYCE2 (1–218), yeast two-hybrid fusion (human) (UniProt Q6PIF2); assay: two-hybrid; Matchmaker Gold Y2H grid; Y187[pGBKT7-bait] mated with Y2HGold[pGADT7-target]; SD/-Ade/-His/-Leu/-Trp with aureobasidin A and X-α-Gal; four reporters ADE1, HIS3, AUR-1C, MEL1; 30°C, 5 days
T4 sequence: T3 sequence (looked up)

[6] = molecular target: T5, human SYCP3 (1–236), yeast two-hybrid fusion (human) (UniProt Q8IZU3); assay: as above
T5 sequence: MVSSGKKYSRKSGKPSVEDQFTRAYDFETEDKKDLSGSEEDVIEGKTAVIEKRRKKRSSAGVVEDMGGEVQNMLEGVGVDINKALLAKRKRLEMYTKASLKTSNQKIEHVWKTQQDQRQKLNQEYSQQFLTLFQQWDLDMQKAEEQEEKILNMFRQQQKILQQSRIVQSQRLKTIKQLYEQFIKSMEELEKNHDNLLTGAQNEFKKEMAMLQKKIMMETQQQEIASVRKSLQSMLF

[7] = molecular target: human SYCP1 (1–811), yeast two-hybrid fusion (human) (UniProt Q15431); assay: as above
[8] = molecular target: T6, human TEX12 (1–123), yeast two-hybrid fusion (human) (UniProt Q9BXU0); assay: as above
T6 sequence: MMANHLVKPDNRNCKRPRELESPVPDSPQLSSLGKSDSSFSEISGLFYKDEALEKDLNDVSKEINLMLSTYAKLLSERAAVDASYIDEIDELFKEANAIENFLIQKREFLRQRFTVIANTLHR

[9] = molecular target: T7, SYCE2_(57–165), tag cleaved (human, UniProt Q6PIF2 57-165); assay: SEC; size-exclusion chromatography of the co-purified, tag-cleaved SYCE2_(57–165)–TEX12 complex, fractions on Coomassie-stained SDS–PAGE, compared with His-TEX12; both purified
T7 construct: also called central conserved region of SYCE2; source: E. coli Rosetta 2 (DE3), co-expressed with TEX12 constructs, co-purified (Ni–NTA, amylose, TEV cleavage, Resource Q); not shown: MBP, N-terminal, cleaved
T7 sequence (looked up): T1 sequence

[10] = molecular target: T8, MBP–SYCE2_(88–165) (human) (UniProt Q6PIF2); assay: pull-down; amylose pull-down after co-expression in bacteria of MBP-fusion SYCE2 constructs (bait) with His-tagged TEX12 or SYCE2 constructs; lysis in 20 mM Tris pH 8.0, 500 mM KCl, 2 mM DTT; 1 h at 4°C; maltose elution; Coomassie-stained SDS–PAGE
T8 sequence: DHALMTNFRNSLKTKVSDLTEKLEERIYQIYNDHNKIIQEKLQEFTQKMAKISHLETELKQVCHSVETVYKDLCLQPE

- binding [5]: binds
B3: human TEX12 (49–123), yeast two-hybrid fusion (domain or fragment, UniProt Q9BXU0 49-123)
chain: KDEALEKDLNDVSKEINLMLSTYAKLLSERAAVDASYIDEIDELFKEANAIENFLIQKREFLRQRFTVIANTLHR

- binding [6]: no binding
- binding [7]: binds
- binding [8]: no binding
- binding [5]: no binding
B4: human SYCP1 (1–811), yeast two-hybrid fusion (domain or fragment, UniProt Q15431 1-811)
chain: MEKQKPFALFVPPRSSSSQVSAVKPQTLGGDSTFFKSFNKCTEDDFEFPFAKTNLSKNGENIDSDPALQKVNFLPVLEQVGNSDCHYQEGLKDSDLENSEGLSRVYSKLYKEAEKIKKWKVSTEAELRQKESKLQENRKIIEAQRKAIQELQFGNEKVSLKLEEGIQENKDLIKENNATRHLCNLLKETCARSAEKTKKYEYEREETRQVYMDLNNNIEKMITAFEELRVQAENSRLEMHFKLKEDYEKIQHLEQEYKKEINDKEKQVSLLLIQITEKENKMKDLTFLLEESRDKVNQLEEKTKLQSENLKQSIEKQHHLTKELEDIKVSLQRSVSTQKALEEDLQIATKTICQLTEEKETQMEESNKARAAHSFVVTEFETTVCSLEELLRTEQQRLEKNEDQLKILTMELQKKSSELEEMTKLTNNKEVELEELKKVLGEKETLLYENKQFEKIAEELKGTEQELIGLLQAREKEVHDLEIQLTAITTSEQYYSKEVKDLKTELENEKLKNTELTSHCNKLSLENKELTQETSDMTLELKNQQEDINNNKKQEERMLKQIENLQETETQLRNELEYVREELKQKRDEVKCKLDKSEENCNNLRKQVENKNKYIEELQQENKALKKKGTAESKQLNVYEIKVNKLELELESAKQKFGEITDTYQKEIEDKKISEENLLEEVEKAKVIADEAVKLQKEIDKRCQHKIAEMVALMEKHKHQYDKIIEERDSELGLYKSKEQEQSSLRASLEIELSNLKAELLSVKKQLEIEREEKEKLKREAKENTATLKEKKDKKTQTFLLETPEIYWKLD

- binding [9]: binds
B6: TEX12 (1–123), tag cleaved (natural protein, human, UniProt Q9BXU0 1-123, looked up)
chain: T6 sequence
notes: not shown: His-tag, N-terminal, cleaved

- binding [8]: binds
- binding [5]: binds
B7: human TEX12 (1–123), yeast two-hybrid fusion (protein, UniProt Q9BXU0 1-123)
chain: T6 sequence

- binding [8]: binds
B10: human SYCE2 (1–218), yeast two-hybrid fusion (protein, UniProt Q6PIF2 1-218)
chain: T3 sequence (looked up)

- binding [6]: binds
- binding [8]: no binding
- binding [5]: no binding
B11: human SYCP3 (1–236), yeast two-hybrid fusion (protein, UniProt Q8IZU3 1-236)
chain: T5 sequence

- binding [8]: binds
B12: human SYCE2 (57–165), yeast two-hybrid fusion (domain or fragment, UniProt Q6PIF2 57-165)
chain: T1 sequence

The remaining lines, values behind:

B1: His–TEX12 87–123 (domain or fragment, UniProt Q9BXU0 87-123)
chain: DEIDELFKEANAIENFLIQKREFLRQRFTVIANTLHR
- binding [1]: binds
- binding [2]: binds
- binding [3]: binds

B2: His–TEX12_(49–123) (domain or fragment, UniProt Q9BXU0 49-123)
chain: B3 chain
- binding [4]: binds
- binding [1]: binds
- binding [2]: binds
- binding [3]: binds

B5: His–TEX12 (1–123) (natural protein, human, UniProt Q9BXU0 1-123, looked up)
chain: T6 sequence
notes: source: E. coli Rosetta 2 (DE3), co-expressed (pRSFDuet-1), in clarified lysate; not shown: His-tag, N-terminal, kept
- binding [4]: binds
- binding [1]: binds

B8: MBP-TEX12_(24–123) (domain or fragment, human, UniProt Q9BXU0 24-123, looked up)
chain: VPDSPQLSSLGKSDSSFSEISGLFYKDEALEKDLNDVSKEINLMLSTYAKLLSERAAVDASYIDEIDELFKEANAIENFLIQKREFLRQRFTVIANTLHR
notes: Dimer by SEC–MALS; source: E. coli Rosetta 2 (DE3), individually expressed, purified on amylose resin; not shown: MBP, N-terminal, kept
- binding [1]: binds
- binding [2]: binds
- binding [3]: binds

B9: His–SYCE2 (1–218) (protein, UniProt Q6PIF2 1-218)
chain: T3 sequence (looked up)
- binding [10]: binds
- binding [1]: binds
